Test results published in the supplement of paper PMC4604168 (melanoma cell lines).
The other results are listed elsewhere or left out. Many values rest on one well or one pass, so single values are uncertain.

How the values were obtained:
Experiment in all cases: cell count relative to DMSO control; melanoma cells; higher = more viable cells
Conditions in all cases: library dose: standard library concentration; 72 h
[1] = system: G361
[2] = system: IPC-298
[3] = system: IST-MEL1
[4] = system: LB2518-MEL
[5] = system: LOXIMVI
[6] = system: MEL-HO
[7] = system: MZ2-MEL
[8] = system: MeWo
[9] = system: RPMI7951
[10] = system: RVH-421
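Note: cells treated in 1,536-well plates, then fixed and DAPI-stained, with nuclei counted from automated high-throughput microscope images.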

| Structure (SMILES) | cell count [1] [%] | cell count [2] [%] | cell count [3] [%] | cell count [4] [%] | cell count [5] [%] | cell count [6] [%] | cell count [7] [%] | cell count [8] [%] | cell count [9] [%] | cell count [10] [%] |
| --- | --- | --- | --- | --- | --- | --- | --- | --- | --- | --- |
| O=C(/C=C/c1cccnc1)NCCCCC1CCN(C(=O)c2ccccc2)CC1 + COc1cc2ncnc(Nc3ccc(Oc4ccccc4)cc3)c2cc1OC [SrcI1] (first compound 0.05 µM, partner dose 10 µM) | 3.3 | 29.6 | 55.3 | 69.4 | 93.7 | 46.2 | 26.5 | 69.9 | 18.2 | 37.2 |
| CC1(C)CCC(c2ccc(Cl)cc2)=C(CN2CCN(c3ccc(C(=O)NS(=O)(=O)c4ccc(N[C@H](CCN5CCOCC5)CSc5ccccc5)c(S(=O)(=O)C(F)(F)F)c4)cc3)CC2)C1 + Nc1ccn([C@@H]2O[C@H](CO)[C@@H](O)C2(F)F)c(=O)n1 [gemcitabine] (first compound 2 µM, partner dose 0.002 µM) | 21.5 | 37.4 | 20.1 | 43.9 | 30.3 | 22.9 | 53.9 | 43.2 | 19.6 | 16.6 |
| CC1(C)CCC(c2ccc(Cl)cc2)=C(CN2CCN(c3ccc(C(=O)NS(=O)(=O)c4ccc(N[C@H](CCN5CCOCC5)CSc5ccccc5)c(S(=O)(=O)C(F)(F)F)c4)cc3)CC2)C1 + O=C(O)C(=O)Nc1sc2c(c1C(=O)O)CCNC2 [TCS401] (first compound 2 µM, partner dose 8.33333 µM) | 83.6 | 112 | 89.9 | 82.1 | 37.7 | 78.5 | 95 | 88.5 | 43 | 69.3 |
| Cc1ccc(Nc2nccc(N(C)c3ccc4c(C)n(C)nc4c3)n2)cc1S(N)(=O)=O [Pazopanib] + CN(NC(=O)CC(=O)NN(C)C(=S)c1ccccc1)C(=S)c1ccccc1 [STA4783] (first compound 2 µM, partner dose 0.03 µM) | 39.6 | 68.2 | 29.3 | 46 | 82 | 84.8 | 95.1 | 34 | 68.5 | 74.4 |
| O=C(/C=C/c1cccnc1)NCCCCC1CCN(C(=O)c2ccccc2)CC1 + CCCCCCCCCCCC1=C(O)C(=O)C=C(O)C1=O [Embelin] (first compound 0.05 µM, partner dose 6 µM) | 20.5 | 53.5 | 64.8 | 82.5 | 88.2 | 62 | 69.7 | 112 | 82 | 69.2 |
| Cc1ccc(Nc2nccc(N(C)c3ccc4c(C)n(C)nc4c3)n2)cc1S(N)(=O)=O [Pazopanib] + Nc1ncn([C@H]2C[C@H](O)[C@@H](CO)O2)c(=O)n1 [decitabine] (first compound 2 µM, partner dose 0.5 µM) | 78.1 | 59.9 | 88.8 | 63.3 | 111 | 73.1 | 62.5 | 81.5 | 56.5 | 93.9 |
| Cc1ccc(Nc2nccc(N(C)c3ccc4c(C)n(C)nc4c3)n2)cc1S(N)(=O)=O [Pazopanib] + Cn1c(=O)n(-c2ccc(C(C)(C)C#N)cc2)c2c3cc(-c4cnc5ccccc5c4)ccc3ncc21 [NVP-BEZ235] (first compound 2 µM, partner dose 0.02 µM) | 60.6 | 50.3 | 80.4 | 71.1 | 75.8 | 57.2 | 63.4 | 57.7 | 54.9 | 91 |
| CC1(C)CCC(c2ccc(Cl)cc2)=C(CN2CCN(c3ccc(C(=O)NS(=O)(=O)c4ccc(N[C@H](CCN5CCOCC5)CSc5ccccc5)c(S(=O)(=O)C(F)(F)F)c4)cc3)CC2)C1 + Oc1nc(-c2ccc(C(F)(F)F)cc2)nc2c1CSCC2 [XAV939] (first compound 2 µM, partner dose 10 µM) | 70.8 | 75.8 | 68.3 | 79.2 | 47.2 | 55.8 | 74.8 | 72.8 | 35.6 | 55.5 |
| Cc1ccc(Nc2nccc(N(C)c3ccc4c(C)n(C)nc4c3)n2)cc1S(N)(=O)=O [Pazopanib] + CCN(CC)CCNC(=O)c1c(C)[nH]c(/C=C2\C(=O)Nc3ccc(F)cc32)c1C [sunitinib] (first compound 2 µM, partner dose 2 µM) | 63 | 72 | 109 | 53 | 150 | 84.4 | 70.2 | 78.3 | 64.5 | 124 |
| Cc1ccc(Nc2nccc(N(C)c3ccc4c(C)n(C)nc4c3)n2)cc1S(N)(=O)=O [Pazopanib] + O=C(O)[C@@H]1[O][Sb](=[O])([O][Sb]2(=[O])[O][C@H]([C@H](O)CO)[C@H](O)[C@H](C(=O)O)[O]2)[O][C@H]([C@H](O)CO)[C@@H]1O [stibogluconate] (first compound 2 µM, partner dose 10 µM) | 86.7 | 68.8 | 87.7 | 75.6 | 97.6 | 81.6 | 73.6 | 91.4 | 85.5 | 82.8 |
| Cc1ccc(Nc2nccc(N(C)c3ccc4c(C)n(C)nc4c3)n2)cc1S(N)(=O)=O [Pazopanib] + CCCCCCCCc1ccc(CCC(N)(CO)CO)cc1 [fingolimod] (first compound 2 µM, partner dose 10 µM) | 1.24 | 49.4 | 5.7 | 0.211 | 10.7 | 3.62 | 0.772 | 18.2 | 1.12 | 6.58 |
| CC1(C)CCC(c2ccc(Cl)cc2)=C(CN2CCN(c3ccc(C(=O)NS(=O)(=O)c4ccc(N[C@H](CCN5CCOCC5)CSc5ccccc5)c(S(=O)(=O)C(F)(F)F)c4)cc3)CC2)C1 + CCN(CC)CCNC(=O)c1c(C)[nH]c(/C=C2\C(=O)Nc3ccc(F)cc32)c1C [sunitinib] (first compound 2 µM, partner dose 2 µM) | 36.3 | 77 | 94.5 | 10.2 | 61.2 | 51.1 | 46.5 | 41.5 | 25.2 | 14.2 |
| CC1(C)CCC(c2ccc(Cl)cc2)=C(CN2CCN(c3ccc(C(=O)NS(=O)(=O)c4ccc(N[C@H](CCN5CCOCC5)CSc5ccccc5)c(S(=O)(=O)C(F)(F)F)c4)cc3)CC2)C1 + COC(=O)c1sccc1S(=O)(=O)Nc1ccc(Nc2ccccc2)cc1OC [GSK0660] (first compound 2 µM, partner dose 5 µM) | 90 | 90.6 | 84.9 | 98.2 | 64.4 | 63 | 87.8 | 111 | 60.6 | 69.1 |
| CC1(C)CCC(c2ccc(Cl)cc2)=C(CN2CCN(c3ccc(C(=O)NS(=O)(=O)c4ccc(N[C@H](CCN5CCOCC5)CSc5ccccc5)c(S(=O)(=O)C(F)(F)F)c4)cc3)CC2)C1 + COc1ccc(-c2ccc3c(N4CCOCC4)nc(N4C[C@@H](C)O[C@@H](C)C4)nc3n2)cc1CO [KU0063794] (first compound 2 µM, partner dose 0.1 µM) | 71.5 | 64.7 | 69.4 | 71.4 | 32.3 | 47.1 | 75.2 | 68.7 | 32.3 | 53.4 |
| CC1(C)CCC(c2ccc(Cl)cc2)=C(CN2CCN(c3ccc(C(=O)NS(=O)(=O)c4ccc(N[C@H](CCN5CCOCC5)CSc5ccccc5)c(S(=O)(=O)C(F)(F)F)c4)cc3)CC2)C1 + Cc1ccc(Nc2nccc(N(C)c3ccc4c(C)n(C)nc4c3)n2)cc1S(N)(=O)=O [Pazopanib] (first compound 2 µM, partner dose 2 µM) | 60.9 | 63.6 | 70.7 | 87 | 54.6 | 53 | 72.9 | 90.7 | 53.9 | 40.6 |
| O=C(/C=C/c1cccnc1)NCCCCC1CCN(C(=O)c2ccccc2)CC1 + CN(c1ncccc1CNc1nc(Nc2ccc3c(c2)CC(=O)N3)ncc1C(F)(F)F)S(C)(=O)=O [PF562271] (first compound 0.05 µM, partner dose 0.4 µM) | 2.48 | 23.6 | 54.3 | 68.6 | 67.8 | 31.9 | 23.6 | 111 | 78.5 | 13.6 |
| Cc1ccc(Nc2nccc(N(C)c3ccc4c(C)n(C)nc4c3)n2)cc1S(N)(=O)=O [Pazopanib] + Cc1cc([N+](=O)[O-])ccc1NS(=O)(=O)c1cc(Cl)ccc1Cl [FH535] (first compound 2 µM, partner dose 5 µM) | 21.6 | 38.4 | 55.7 | 74.7 | 51.9 | 52.6 | 52.7 | 53 | 71.2 | 62.3 |
| O=C(/C=C/c1cccnc1)NCCCCC1CCN(C(=O)c2ccccc2)CC1 + CC1(C)NC(=O)N(c2ccc([N+](=O)[O-])c(C(F)(F)F)c2)C1=O [nilutamide] (first compound 0.05 µM, partner dose 5 µM) | 3.29 | 43 | 68.2 | 61.2 | 68.9 | 48.5 | 46.5 | 105 | 158 | 36.3 |
| Cc1ccc(Nc2nccc(N(C)c3ccc4c(C)n(C)nc4c3)n2)cc1S(N)(=O)=O [Pazopanib] + c1cc(-c2cnn3cc(-c4ccc(OCCN5CCCCC5)cc4)cnc23)ccn1 [Dorsomorphin] (first compound 2 µM, partner dose 2 µM) | 47.1 | 55.8 | 98 | 56.9 | 172 | 77.9 | 65.5 | 78.6 | 77.7 | 79.4 |
| CC1(C)CCC(c2ccc(Cl)cc2)=C(CN2CCN(c3ccc(C(=O)NS(=O)(=O)c4ccc(N[C@H](CCN5CCOCC5)CSc5ccccc5)c(S(=O)(=O)C(F)(F)F)c4)cc3)CC2)C1 + C[C@]1(c2nc3c(C(N)=O)cccc3[nH]2)CCCN1 [Veliparib] (first compound 2 µM, partner dose 7 µM) | 65.8 | 81.1 | 78.5 | 61.3 | 52.2 | 61.1 | 77 | 77.5 | 51 | 70.9 |
